Our source for the self-cleavage values is the RNAGym collection of RNA variant scans (doi:10.1093/nar/gkz1192).

The chains are these.
B1: CPEB3 Ribozyme (parent)
chain: UAACAGGGGGCCACAGCAGAAGCGUUCACGUCGCAGCCCCUGUCAGAUUCUGGUGAAUCUGCGAAUUCUGCUGUAUAUCUC

The source gives no read counts; variants with many changes may rest on few reads.

The variants in this data set derive from B1. Description: self-cleavage, relative activity (ratio to wild type); higher = more cleavage; in vitro, sequencing. The method, boiled down:
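For each CPEB3 ribozyme variant, relative activity is its cleaved/total read fraction divided by the unmutated ribozyme's. Barcoded error-prone PCR libraries were transcribed by T7 RNA polymerase (5 hours, 37°C) and held in DNase I for 15 min before an EDTA stop, with cleavage occurring throughout. Template-switching reverse transcription and Illumina sequencing were used to read the RNAs. A 5-read minimum applied, and results are the mean of three batches.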
As to U43A U49C U60C, the self-cleavage was determined as 0.41. In the case of U41C G42U A56G U74A, the self-cleavage was 0.09.

Regarding A45U A57G U80C, the self-cleavage stood at 0.25. On to U43G A45G U54A, for which the self-cleavage is 0.29. With A45G G46A A77U, the self-cleavage came to 0.27.

As for U41C A57C U69C U72A, the self-cleavage worked out at 0.16. U41C U49C G61A C62U U78G: the self-cleavage stood at 0.13. Then C44A U60C U67A U78A, with 0.07; and A45U A64C U72C, with 0.28. On to U41C U66A U69A, for which the self-cleavage was found to be 0.26. For A45C U49C U54A U60C A64G, the self-cleavage is 0.19. Take A45G U49C U60C: the self-cleavage was 0.71. As to U41C U51A A57G, the self-cleavage amounted to 0.64. As to U41C U49A G63A U72C U78C, the self-cleavage was found to be 0.88.

Consider U43C A64G G73C U74A, for which the self-cleavage was 0.54.

With U41C U60C U76G, the self-cleavage was 0.56. Regarding U41C U43C G61C, the self-cleavage worked out at 0.04. Take U43G A64U U80A: the self-cleavage worked out at 0.15.

On to U43C A57G U67A, for which the self-cleavage is 0.14. Turning to A45G G70A U74C, the self-cleavage came to 0.77. On to A45U A64G U72C, for which the self-cleavage came to 0.38. For A45U C50A A65G, the self-cleavage turned out to be 0.15. For U41A U66C U67C U72C the value was 0.06; for U41C U51C U60A U72C, 0.52; for G42A A45G U60A, 0.14. Turning to A45G U74C U76C, the self-cleavage was 1.12. For A45G U67A U78C the value was 0.4; for U43A U51C U69A, 0.69. Regarding U43C A65G U69A U80A, the self-cleavage was 0.08.

On to U43C A64G U66C, for which the self-cleavage came to 0.11. Then A45G U48C A57C G73A, with 0.59; and U41C A47G U51A U69C, with 0.53; and U43A A65C C71U, with 0.68. For A45G A57G C59A U67A the value was 0.2.

As to U41C A57G U76C, the self-cleavage turned out to be 0.98. Turning to C44U C59A G70U, the self-cleavage came out at 0.12.

With U41G U72C U78C, the self-cleavage was found to be 0.34. As for U41C C59U U74A, the self-cleavage is 1.05.

In the case of A45G A57G U72A, the self-cleavage was found to be 0.82. As to A45G U72C A75U, the self-cleavage is 1.04. For U43C U51A U58C G70A A77U the value was 0.09; for U41C G63A A64G, 0.52; for A45U A65G U66C, 0.15. As to A45U G61C A64U, the self-cleavage came to 0.17. For U41C U69G A75G the value was 0.57. A45U A57G C59U U72C A75C: the self-cleavage amounted to 0.12. With A45G U69A U72C, the self-cleavage is 0.25. As to U43A A47U A57G, the self-cleavage came out at 0.19. In the case of U41G A65G U69C, the self-cleavage is 0.07. Consider A45U U49C U54A G61U, for which the self-cleavage is 0.16.

U41G U49A U67G U69C A77U: the self-cleavage is 0.08. U41A U58G A64G A65G U76C: the self-cleavage was 0.06. For C44U A56G U69G the value was 0.17; for A45G U58C U69C, 0.08.

For U43A A45G U72C A77G, the self-cleavage is 1.11. For A45C G63U U78A, the self-cleavage was 0.24. On to A45U A65G G73A, for which the self-cleavage was 0.46.

Regarding A45G U67A C81U, the self-cleavage stood at 0.23. Take A45G C50A U67A: the self-cleavage worked out at 0.21.

Regarding U41C U76C A77U, the self-cleavage was found to be 1.18. As to A45G A64U U67C U69G, the self-cleavage was 0.24.

Consider U41A U51G U67A U72A, for which the self-cleavage was 0.07. With A45U U54A A57G U67C U69A G73C, the self-cleavage was determined as 0.09.

In the case of U43C U60A A64G U67C, the self-cleavage stood at 0.13.

For A45G A64G A75G, the self-cleavage turned out to be 0.39. Then U43C A64G U69A, with 0.24; and A45G U74C U80C, with 1.06. In the case of C44A U60C U76C, the self-cleavage turned out to be 0.17.

As for U41C C50A G52U U60C A77G, the self-cleavage amounted to 0.21. Consider U43C U48A U78C, for which the self-cleavage was found to be 0.14.

For U43C U48C U78C, the self-cleavage was determined as 0.18.

For the variant A45G A56G C59G U72C A77G, the self-cleavage stood at 0.13.

As to U41C A45U A75G U76A, the self-cleavage stood at 0.35. As to U43C U58A C68G, the self-cleavage worked out at 0.13.

As for U41G U66A U80A, the self-cleavage came out at 0.08. U43C C50U U69C: the self-cleavage came to 0.11. Consider U41C A64U U72C U80C, for which the self-cleavage came out at 0.35. U43A A45G A47U A64G: the self-cleavage is 0.09. In the case of A45U U51G A56U U80C, the self-cleavage was 0.1. Consider A45U U60A U78A, for which the self-cleavage amounted to 1.2. On to C44U A64G U69G U76C, for which the self-cleavage turned out to be 0.07.

Turning to U41C U49C A65G, the self-cleavage is 0.11. Turning to U41C U49C U67C, the self-cleavage came to 0.23.

On to A45G U48C C50U A56G, for which the self-cleavage is 0.38.

On to U41G U67C U80C, for which the self-cleavage turned out to be 0.1. As to U41A U54C A65G U69C U72C U80C, the self-cleavage turned out to be 0.09. In the case of U41C A64G U67C, the self-cleavage turned out to be 0.35.

For the variant U41A U74C A75G, the self-cleavage turned out to be 0.26. Then A45C U72A U74G, with 0.54; and U41C G63C U67C U69C, with 0.23. Consider U41C U43C U49A A64U U76C U78C, for which the self-cleavage was found to be 0.14. For U41A U58C U76A, the self-cleavage came to 0.14.

As to U43A U69A A77G, the self-cleavage was 0.83. In the case of U43C A47G U51C U54C, the self-cleavage amounted to 0.2.

Take U43C U51C U72C: the self-cleavage worked out at 0.44. As for U43C U49C C81G, the self-cleavage was 0.12.

U43A U49C U72G: the self-cleavage was found to be 0.2. As for A45U U49C U80C, the self-cleavage was 0.43. Then A45U U67C U72G, with 0.29; and A45U G53A G55A, with 0.29; and U41C U78C C79G U80C, with 1.22.

Turning to G42A U43C A75U, the self-cleavage was determined as 0.48. On to C44U U66C A77U, for which the self-cleavage was found to be 0.06. As to A45G U54C U69C, the self-cleavage came to 0.18. For U43C U49C A57G U69C the value was 0.37; for U43A A45U U72G, 1.06; for A45U G55C A75U, 0.17. Regarding A45G U60A U72C, the self-cleavage worked out at 0.72. As for U43C U51C U67C, the self-cleavage was found to be 0.35.

On to C44U U54C U69A, for which the self-cleavage was found to be 0.39. As for A45U A64G A77U, the self-cleavage came out at 0.46. Regarding U43A U60A U74C, the self-cleavage worked out at 1.06.

Consider U43C U60A U72C, for which the self-cleavage is 0.18.

In the case of A45G U48C U49C A64C U72C, the self-cleavage turned out to be 0.11. As to A45G U51A U60A, the self-cleavage is 0.51. For U41C U49C U72C A77G, the self-cleavage worked out at 0.41. Then U41C U43C G55A U66C U74A, with 0.09; and U41C A56G U66C U72C U78A, with 0.4. Take A45U A64G A65U U72C: the self-cleavage is 0.13. For U41A U54A A64G U67C U76C the value was 0.12; for A45U U66C U76C, 0.27. In the case of A45U U60A U72A U78C C79U, the self-cleavage worked out at 0.81. With U41C U43A U60A, the self-cleavage is 0.2. For G42A U58A U80A the value was 0.19. For the variant A45G U54A U60C A64U, the self-cleavage was found to be 0.54. Regarding U41A U74A U78C, the self-cleavage worked out at 0.07. As to A45G U67A C79G, the self-cleavage came out at 0.55. For A45G U49A U69A U72A, the self-cleavage worked out at 0.08. For U43C A45G U48C U66C the value was 0.14; for U43A U54C A57G U60C U72A U78C, 0.4; for U43A U58C U76C, 0.5. With U41C G63U A77U, the self-cleavage stood at 1.15. As to A45U U54C U67C, the self-cleavage is 0.32. For G42A A64U U76C the value was 0.09. With U41C U66C U69C, the self-cleavage amounted to 0.15. Take U43C U69C U80C: the self-cleavage was 0.16. For U43C A64G U67A, the self-cleavage was determined as 0.21. With A45G A57G U60C A65U C71G, the self-cleavage was 0.16. U41C U51A U60C: the self-cleavage was found to be 0.71. For A45C C50A U60A A64G, the self-cleavage came to 0.18. Then U43C U60G U78C, with 0.07. U41C U66C C68A: the self-cleavage stood at 0.23. Turning to U41C U54G U58A U72G, the self-cleavage is 0.11. For A45C A64G U72A U80C the value was 0.27; for U41C U58C U66C, 0.35.

As to A45U U58C U66C U74C, the self-cleavage amounted to 0.13. Turning to U41C U49A A56G A65G G73C U74C U78C, the self-cleavage is 0.39. On to U41G U69G U76G, for which the self-cleavage stood at 0. Turning to C44U A56G U60A, the self-cleavage was found to be 0.25. As for A45G C50U U58C U60A, the self-cleavage was determined as 0.12. As for A45U U49A A56G A57G G63A U80A C81U, the self-cleavage turned out to be 0.02. Consider U41C U43C A77G, for which the self-cleavage came to 0.52. Take G42A U51C U54A: the self-cleavage came to 0.25. Regarding U41G U54A A77U, the self-cleavage was 0.29. Then A45G U60A G63A U78A, with 0.17. Then U41C A45G U80C, with 0.81; and U41C U60C U69C U76C U80C, with 0.33; and U41C U43C A45G A57U U66A U76C C81U, with 0.07. For U43A U51A C62A U72A, the self-cleavage was 0.67.

As to U43C U72C C79G, the self-cleavage is 1.12. For the variant A45G U67C U74A, the self-cleavage was found to be 0.25. Then U41C U43C G73U, with 0.94; and U41G U49C A64G G73A U80C, with 0.22; and U43C U69C C71A U78A, with 0.46. Consider A45G A47G U54G, for which the self-cleavage amounted to 0.29.

For U43C U58C U67A U78C, the self-cleavage is 0.1. Turning to U43C U72C U74A C79G, the self-cleavage came to 0.98.
